These results are taken from US20070020283A1 (Regeneron, published 2007).

Values joined by “and” are separate entries in the source; they are usually repeats but may differ in a detail not shown here. Identical values can stand only once.

Experiment [1] addresses T1, human interferon γ (human, UniProt P01579 24-166, limits assumed).
T1 construct: Injected in solution over captured fusion proteins (BiaCore); Recombinant human IFNγ at 4 pM in the luciferase bioassays; also called IFNγ; human IFNγ
T1 sequence (looked up): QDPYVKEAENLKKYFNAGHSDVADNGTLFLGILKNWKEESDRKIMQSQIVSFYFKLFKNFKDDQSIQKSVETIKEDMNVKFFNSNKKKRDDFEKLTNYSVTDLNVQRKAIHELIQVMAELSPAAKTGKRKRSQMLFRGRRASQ
Briefly: BiaCore (SPR), fusion from CHO supernatant captured by anti-human Fc, human IFNγ injected. As for the experimental part: The affinity of the interferon γ-binding fusion polypeptides for human interferon γ was measured using a BlAcore 2000™ or BlAcore 3000™, as described in WO 00/75319, herein specifically incorporated by reference in its entirety. Briefly, the IFNγ-specific polypeptides were produce as small-scale supernatants by transiently transfecting CHO cells, using Lipofectamine/LIPO Plus® (Life Technologies), with DNA constructs encoding the proteins. Supernatants were collected after 72 hours and protein expression was measured by Western blotting with anti-human Fc HRP-conjugated antibody (Promega) and visualized by ECL (Pierce). Briefly, 5.4×10⁵ CHOK1 cells per well of a 6 well tissue culture dish were transfected using 1 μg of DNA and 5 μl of lipofectamine in OptiMEM™ (Gibco). After 12 h the cells were washed with OptiMEM™ and 2 ml of CHO serum free medium (Gibco) was added. After 60 h and 72 h the media was collected and centrifuged to remove cellular debris. For the BiaCore™ analysis, the IFNγ-binding fusion polypeptides from the transiently transfected CHO supernatants were captured onto the chip surface using anti-human Fc antibodies. Various concentrations of human IFNγ are injected over the surface and the time course of association and dissociation are monitored. Kinetic analyses using BIA evaluation software were performed to obtain the association and dissociation rate constants.
A general note: Surface plasmon resonance follows binding to a sensor surface in real time, without labels.

In experiment [2] the target is T1, human interferon γ. Briefly: cell-based or functional assay.

B1: hIFNγRα(1-239).TG.hIFNγRβ.SG.hFc (Fc fusion)
chain: EMGTADLGPSSVPTPTNVTIESYNMNPIVYWEYQIMPQVPVFTVEVKNYGVKNSEWIDACINISHHYCNISDHVGDPSNSLWVRVKARVGQKESAYAKSEEFAVCRDGKIGPPKLDIRKEEKQIMIDIFHPSVFVNGDEQEVDYDPETTCYIRVYNVYVRMNGSEIQYKILTQKEDDCDEIQCQLAIPVSSLNSQYCVSAEGVLHVWGVTTEKSKEVCITIFTGSQLPAPQHPKIRLYNAEQVLSWEPVALSNSTRPVVYRVQFKYTDSKWFTADIMSIGVNCTQITATECDFTAASPSAGFPMDFNVTLRLRAELGALHSAWVTMPWFQHYRNVTVGPPENIEVTPGEGSLIIRFSSPFDIADTSTAFFCYYVHYWEKGGIQQVKGPFRSNSISLDNLKPSRVYCLQVQAQLLWNKSNIFRVGHLSNISCYETMADASTELQSG[… human IgG1 Fc …]
notes: Dimeric construct from CHO supernatant; also called pCTR 2842
As for B1, the Kd (commonly a measure of binding affinity in units of concentration) in the experiment with human interferon γ [1] stood at 0.0129 nM. Also, in the experiment with human interferon γ [2], the “IC50 (M), GAS-luciferase bioassay in HEK293 cells” value is 2.02e-10 M and 3.8e-10 M; the “IC50 (M), ISRE-luciferase bioassay in HEK293 cells” value was found to be 7.2e-11 M.

B2: hIFNγRα(1-239).TG.hIFNγRβ(C174S).SG.hFc (Fc fusion)
chain: EMGTADLGPSSVPTPTNVTIESYNMNPIVYWEYQIMPQVPVFTVEVKNYGVKNSEWIDACINISHHYCNISDHVGDPSNSLWVRVKARVGQKESAYAKSEEFAVCRDGKIGPPKLDIRKEEKQIMIDIFHPSVFVNGDEQEVDYDPETTCYIRVYNVYVRMNGSEIQYKILTQKEDDCDEIQCQLAIPVSSLNSQYCVSAEGVLHVWGVTTEKSKEVCITIFTGSQLPAPQHPKIRLYNAEQVLSWEPVALSNSTRPVVYRVQFKYTDSKWFTADIMSIGVNCTQITATECDFTAASPSAGFPMDFNVTLRLRAELGALHSAWVTMPWFQHYRNVTVGPPENIEVTPGEGSLIIRFSSPFDIADTSTAFFSYYVHYWEKGGIQQVKGPFRSNSISLDNLKPSRVYCLQVQAQLLWNKSNIFRVGHLSNISCYETMADASTELQSG[… human IgG1 Fc …]
On to B2, for which, in the experiment with human interferon γ [2], the “IC50 (M), GAS-luciferase bioassay in HEK293 cells” value is 4.52e-10 M and 4e-10 M; the “IC50 (M), ISRE-luciferase bioassay in HEK293 cells” value is 1.18e-10 M and 1.54e-10 M.
